Results from PubChem BioAssay (NCATS).
Several values for one entry are separate records, joined by “and”; a condition that tells them apart may be missing. Identical values can stand only once. The inconclusive results got no clear call from the source; some entries with a clear call stand among them for comparison. For part of these data: Potencies beside an inconclusive call are fits to weak or partial responses and may not hold up. Activity calls are given as the source filed them. Unless noted, calls follow the shape of the dose curve; as a rule, active = well fitted curve in the direction sought with a large enough effect; inconclusive = small, poorly fitted or top-dose-only effect, or another doubt; inactive = no such curve, though single readings can be large; an effect the other way counts as inactive or inconclusive.

What was measured:
[1] = Validation of Assay for Modulators of Lamin A Splicing (AID 1459; active = well fitted curve in the direction sought with a large enough effect in the signal ratio; inconclusive = small, poorly fitted or top-dose-only effect, or effect the other way, or a change in a side signal; inactive = no such curve, though single readings can be large or run the other way; the % refers to the signal ratio; also: potency is read from the fitted curve at half-maximal effect;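 as to ratio change, both ways: cells exposed to compound for two days before reading; 0% is about no effect; ratio rise marks activators and ratio drop marks inhibitors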); settings: Lamin A splicing dual RFP/GFP fluorescence reporter; Potency: ratio unless noted; ratio change, both ways: at 9.22 µM unless noted
Procedure, shortened: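 HeLa S3 lamin A-EGFP/DsRed2 stable clone, 600 cells/well, Opti-MEM 2% FBS; compounds by pin tool; 48 hrs, 37 °C/5% CO2; Acumen 488 nm scan, objects 10-100 um; GFP/RFP intensity ratio.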

[2] = qHTS Assay for Lipid Storage Modulators (AID 1519; calls by dose curve; also: % is scaled to controls: 0 for no effect and ±100 for the full control effect); settings: Drosophila S3 cells, BODIPY lipid droplet/cell ratio, laser cytometry, cells loaded with oleic acid; activity change, negative = inhibition: at 57.5 µM (top of the series) unless noted
Procedure, shortened: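 Cells seeded at 5,000 per well were treated with compounds over a concentration series and loaded with oleic acid (400 uM, as added). Lipid droplet fluorescence (488 nm excitation, 500-530 nm channel) was read by laser-scanning cytometry and normalized to 20 uM Triacsin C.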

[3] = qHTS for differential inhibitors of proliferation of Plasmodium falciparum line 7G8 (AID 1815);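 also: potency is read from the fitted curve at half-maximal effect; parasite growth measured after three days of incubation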
[4] = qHTS for differential inhibitors of proliferation of Plasmodium falciparum line GB4 (AID 1816); settings: Potency: Plasmodium falciparum GB4 proliferation inhibition;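 also: potency is read from the fitted curve at half-maximal effect; parasite growth measured after 72 h incubation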
[5] = qHTS for differential inhibitors of proliferation of Plasmodium falciparum line 3D7 (AID 1876); also: potency is read from the fitted curve at half-maximal effect
[6] = qHTS for differential inhibitors of proliferation of Plasmodium falciparum line D10 (AID 1877);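 also: potency is read from the fitted curve at half-maximal effect; parasites grown with compound for 72 h before DNA staining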
[7] = target: RecQ-like DNA helicase BLM (Homo sapiens) (UniProt P54132); assay: qHTS Validation Assay for Inhibitors of Bloom's syndrome helicase (BLM) (AID 2364); also: potency is read from the fitted curve at half-maximal effect;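 as to activity change, negative = inhibition: plate controls were DMSO vehicle for no effect and enzyme-free control for full effect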
Sequence of UniProt P54132 (P54132 whole entry, looked up): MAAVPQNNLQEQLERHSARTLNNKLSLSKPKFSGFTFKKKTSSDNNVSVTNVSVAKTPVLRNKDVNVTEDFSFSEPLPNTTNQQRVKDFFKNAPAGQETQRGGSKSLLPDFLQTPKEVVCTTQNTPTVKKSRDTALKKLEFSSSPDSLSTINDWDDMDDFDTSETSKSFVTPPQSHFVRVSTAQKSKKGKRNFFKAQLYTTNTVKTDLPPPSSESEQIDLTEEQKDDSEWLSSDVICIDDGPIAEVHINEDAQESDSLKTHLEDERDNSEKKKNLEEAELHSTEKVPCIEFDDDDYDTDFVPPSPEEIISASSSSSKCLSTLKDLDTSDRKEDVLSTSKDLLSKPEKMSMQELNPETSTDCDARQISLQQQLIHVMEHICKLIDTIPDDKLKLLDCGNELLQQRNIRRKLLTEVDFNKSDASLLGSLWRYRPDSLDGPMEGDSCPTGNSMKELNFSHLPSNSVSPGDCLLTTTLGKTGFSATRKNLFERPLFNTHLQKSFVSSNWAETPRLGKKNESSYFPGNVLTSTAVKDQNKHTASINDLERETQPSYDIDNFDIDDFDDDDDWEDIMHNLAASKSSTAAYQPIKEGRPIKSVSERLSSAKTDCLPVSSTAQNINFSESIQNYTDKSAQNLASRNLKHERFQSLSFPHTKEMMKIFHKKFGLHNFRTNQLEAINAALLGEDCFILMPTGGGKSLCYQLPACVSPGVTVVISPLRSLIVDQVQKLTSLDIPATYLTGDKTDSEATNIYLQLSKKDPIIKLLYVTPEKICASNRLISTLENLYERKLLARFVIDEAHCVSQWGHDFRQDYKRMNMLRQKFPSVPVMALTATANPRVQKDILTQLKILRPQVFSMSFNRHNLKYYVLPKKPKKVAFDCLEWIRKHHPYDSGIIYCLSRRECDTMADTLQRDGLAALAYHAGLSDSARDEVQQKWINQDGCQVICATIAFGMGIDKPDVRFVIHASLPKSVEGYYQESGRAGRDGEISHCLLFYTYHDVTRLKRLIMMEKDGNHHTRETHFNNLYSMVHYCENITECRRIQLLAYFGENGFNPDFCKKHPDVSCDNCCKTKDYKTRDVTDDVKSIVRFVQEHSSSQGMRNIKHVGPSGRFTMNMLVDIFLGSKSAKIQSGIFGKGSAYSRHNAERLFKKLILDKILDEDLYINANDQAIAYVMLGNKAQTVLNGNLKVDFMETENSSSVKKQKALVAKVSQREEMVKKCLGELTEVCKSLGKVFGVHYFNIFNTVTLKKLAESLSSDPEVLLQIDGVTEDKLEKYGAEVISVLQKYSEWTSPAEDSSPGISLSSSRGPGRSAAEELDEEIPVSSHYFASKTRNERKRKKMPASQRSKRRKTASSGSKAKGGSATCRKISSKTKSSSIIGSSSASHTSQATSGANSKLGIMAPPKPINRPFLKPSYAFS
Procedure, shortened: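 50 nM BLM preincubated 15 min at room temperature with compound in pH 8.0 Tris buffer containing 2.5 ug/ml poly(dI-dC); started with 200 nM TAMRA/BHQ-2 forked duplex and 2 mM ATP (final). Unwinding read as TAMRA fluorescence increase, two reads 2 h apart.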

[8] = Quantitative high throughput screen for delayed death inhibitors of the malarial parasite plastid, 96 hour incubation (AID 488745); also: nearly all actives have a fitted effect of over 70% in size; also: potency is read from the fitted curve at half-maximal effect; as to activity change, negative = inhibition: % is scaled to controls: 0 for no effect and ±100 for the full control effect
Procedure, shortened: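 Decreased firefly luciferase luminescence indicates inhibited growth of reporter-integrated P. falciparum after two generations (96 h, 37 C, 5% CO2). Infected erythrocytes at 0.1% parasitemia, 2% hematocrit, in Albumax-supplemented RPMI 1640.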

[9] = qHTS for differential inhibitors of proliferation of Plasmodium falciparum line Dd2 (AID 1882); settings: Potency: Plasmodium falciparum Dd2 proliferation inhibition; also: potency is read from the fitted curve at half-maximal effect; nearly all actives have a fitted effect of over 65% in size
Procedure, shortened: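 SYBR Green DNA fluorescence (ex 485, em 535 nm) after overnight lysis quantifies parasite growth; compound exposure lasted 72 h at 37 C on infected red cells at 2.5% hematocrit, 0.3% parasitemia (final). Artemisinin 0.29 uM and vehicle wells define normalization.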

[10] = target: Ferritin light chain (Equus caballus) (UniProt P02791); assay: qHTS Validation Assay for Identification of Novel General Anesthetics (AID 2323); also: potency is read from the fitted curve at half-maximal effect
Sequence of UniProt P02791 (P02791 whole entry, looked up): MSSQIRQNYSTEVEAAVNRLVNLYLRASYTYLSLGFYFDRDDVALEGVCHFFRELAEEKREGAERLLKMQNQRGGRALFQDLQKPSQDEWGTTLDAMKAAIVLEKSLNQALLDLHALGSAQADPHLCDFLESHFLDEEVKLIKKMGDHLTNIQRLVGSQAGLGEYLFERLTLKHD
Procedure, shortened: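 Fluorescence at 535 nm (excitation 380 nm) reported loss of 1-AMA binding to horse-spleen apoferritin (10 uM) in PBS with 50% saturated 1-aminoanthracene, after 10 min room-temperature incubation with compound; values from Hill fits of normalized response.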

[11] = Primary qHTS for small molecule stabilizers of the endoplasmic reticulum resident proteome: Secreted ER Calcium Modulated Protein (SERCaMP) assay (AID 1508630); settings: SH-SY5Y GLuc-SERCaMP (Gaussia luciferase released on ER calcium loss) secretion, thapsigargin, luminescence; activity change, negative = inhibition: at 38.4 µM (top of the series) unless noted; also: potency is read from the fitted curve at half-maximal effect
Procedure, shortened: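 The SH-SY5Y reporter protocol was run at 3 concentrations up to 38.3 uM (primary) or 11 concentrations (follow-up): 16 h compound, 100 nM thapsigargin for 4 h, then extracellular luciferase luminescence.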

[12] = target: Calcium and integrin-binding protein 1 (Homo sapiens) (UniProt Q99828); assay: Confirmatory qHTS for Identification of Calcium Integrin Binding Protein 1 (CIB1) Competitor (AID 1508617); also: % is scaled to controls: 0 for no effect and ±100 for the full control effect; nearly all actives have a fitted effect of over 65% in size
Sequence of UniProt Q99828 (Q99828 whole entry, looked up): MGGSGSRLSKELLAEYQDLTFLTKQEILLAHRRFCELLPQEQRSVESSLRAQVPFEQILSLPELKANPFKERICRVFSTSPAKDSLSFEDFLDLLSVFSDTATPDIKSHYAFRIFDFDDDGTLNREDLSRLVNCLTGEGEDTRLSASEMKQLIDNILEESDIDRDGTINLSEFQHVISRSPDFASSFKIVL
Procedure, shortened: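 Confirmatory qHTS measures displacement of a FITC-alphaIIb peptide (100 nM) from CIB1-GST (1 uM) by fluorescence polarization. Calcium-containing HEPES buffer, pH 7.4; two 15 min room-temperature incubations.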

[13] = target: Calcium and integrin-binding protein 1 (Homo sapiens) (UniProt Q99828); assay: Primary qHTS for Identification of Calcium Integrin Binding Protein 1 (CIB1) Competitor (AID 1508620); also: potency is read from the fitted curve at half-maximal effect
Procedure, shortened: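 Fluorescence polarization competition: GST-tagged CIB1 (1 uM final) preincubated with compound 15 min at room temperature, then FITC-labelled alphaIIb peptide (100 nM final) added. After 15 min at room temperature, polarization read at Ex 480/Em 540.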

[14] = Counterscreen for APE1 Inhibitors: Fluorescent Dye Displacement Validation Assay (AID 1707); also: potency is read from the fitted curve at half-maximal effect
Procedure, shortened: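 Endpoint fluorescence read at 480 nm excitation / 540 nm emission; DNA-binding compounds lower signal by displacing 250 nM Thiazole Orange from 50 nM dsDNA containing a tetrahydrofuran abasic site, Tris-HCl pH7.5 buffer with NaCl and MgCl2.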

[15] = Validation screen for small molecules that induce DNA re-replication in MCF 10A normal breast cells (AID 463097); also: potency is read from the fitted curve at half-maximal effect; nearly all actives have a fitted effect of over 60% in size
Procedure, shortened: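 Image-based qHTS: normal breast cells are incubated with compound for 48 hr, stained with Hoechst, and scanned for total nuclear fluorescence. Compounds raising the fraction of nuclei with elevated DNA content count as re-replication inducers.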

[16] = target: Endonuclease 4 (Escherichia coli (strain K12)) (UniProt P0A6C1); assay: Counterscreen for APE1 Inhibitors: qHTS Validation Assay for Inhibitors of Endonuclease IV (AID 1708); also: potency is read from the fitted curve at half-maximal effect
Procedure, shortened: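 Conditions: 2 nM enzyme, 50 nM TAMRA/BHQ-2 substrate, pH 7.5 Tris buffer with 2 mM MgCl2, RT. Compound preincubation 15 min; readout three fluorescence reads 60 s apart, third-minus-first.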

[17] = qHTS for differential inhibitors of proliferation of Plasmodium falciparum line W2 (AID 1883); settings: Potency: Plasmodium falciparum W2 proliferation inhibition;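 also: potency is read from the fitted curve at half-maximal effect; parasites grown with compound for 72 h before lysis and staining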
[18] = target: DNA repair nuclease/redox regulator APEX1 (Homo sapiens) (UniProt P27695); assay: Confirmation qHTS Assay for Inhibitors of the Human Apurinic/apyrimidinic Endonuclease 1 (APE1) (AID 2572);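 also: fluorescence gain from purified APE1 cutting a TAMRA/BHQ-2 THF abasic duplex; % is scaled to controls: 0 for no effect and ±100 for the full control effect; nearly all actives have a fitted effect of over 30% in size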
Sequence of UniProt P27695 (P27695 whole entry, looked up): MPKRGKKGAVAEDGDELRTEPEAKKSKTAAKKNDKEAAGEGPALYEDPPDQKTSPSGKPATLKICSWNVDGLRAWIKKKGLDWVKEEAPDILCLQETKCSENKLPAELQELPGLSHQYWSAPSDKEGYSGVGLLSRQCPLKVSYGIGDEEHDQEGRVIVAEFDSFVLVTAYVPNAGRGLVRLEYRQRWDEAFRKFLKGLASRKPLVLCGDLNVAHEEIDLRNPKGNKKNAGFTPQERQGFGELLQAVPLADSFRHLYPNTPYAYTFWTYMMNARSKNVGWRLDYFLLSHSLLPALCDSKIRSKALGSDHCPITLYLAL
Procedure, shortened: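 Cleavage of a tetrahydrofuran abasic site in a 50 nM (final) TAMRA/BHQ-2 duplex was tracked by rising fluorescence, measured in kinetic mode; reaction progress computed from the first-to-third read difference.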

[19] = target: ATP-dependent 6-phosphofructokinase (Trypanosoma brucei brucei) (UniProt O15648); assay: qHTS Validation Assay to Find Inhibitors of T. brucei phosphofructokinase (AID 485368); also: potency is read from the fitted curve at half-maximal effect
Sequence of UniProt O15648 (O15648 whole entry, looked up): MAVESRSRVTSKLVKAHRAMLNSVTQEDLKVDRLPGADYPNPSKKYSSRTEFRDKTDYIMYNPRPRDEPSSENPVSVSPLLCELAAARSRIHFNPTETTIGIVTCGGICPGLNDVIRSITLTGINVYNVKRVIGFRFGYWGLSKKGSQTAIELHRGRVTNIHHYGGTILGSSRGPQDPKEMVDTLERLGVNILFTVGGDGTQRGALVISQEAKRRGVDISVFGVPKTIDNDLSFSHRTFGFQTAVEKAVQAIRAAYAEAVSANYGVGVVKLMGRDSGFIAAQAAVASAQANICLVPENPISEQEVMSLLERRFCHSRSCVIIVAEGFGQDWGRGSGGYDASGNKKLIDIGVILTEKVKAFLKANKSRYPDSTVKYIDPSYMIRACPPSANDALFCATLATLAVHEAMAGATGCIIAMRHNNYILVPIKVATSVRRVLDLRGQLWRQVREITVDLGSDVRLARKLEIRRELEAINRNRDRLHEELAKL
Procedure, shortened: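 qHTS format, up to 57 uM. PFK 1.25 nM; F6P 0.5 mM; ATP 0.1 mM; 5 mM MgCl2, 0.01% Tween20, 0.1% BSA; 0.1 M TEA pH 8.0; 45 min RT; ADP-Glo readout; no-enzyme control = full inhibition.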

[20] = target: Thioredoxin reductase 1, cytoplasmic (Rattus norvegicus) (UniProt O89049); assay: qHTS Assay for Inhibitors of Mammalian Selenoprotein Thioredoxin Reductase 1 (TrxR1) (AID 488773); settings: Potency: inhibition; also: potency is read from the fitted curve at half-maximal effect; nearly all actives have a fitted effect of over 40% in size
Sequence of UniProt O89049 (O89049 whole entry, looked up): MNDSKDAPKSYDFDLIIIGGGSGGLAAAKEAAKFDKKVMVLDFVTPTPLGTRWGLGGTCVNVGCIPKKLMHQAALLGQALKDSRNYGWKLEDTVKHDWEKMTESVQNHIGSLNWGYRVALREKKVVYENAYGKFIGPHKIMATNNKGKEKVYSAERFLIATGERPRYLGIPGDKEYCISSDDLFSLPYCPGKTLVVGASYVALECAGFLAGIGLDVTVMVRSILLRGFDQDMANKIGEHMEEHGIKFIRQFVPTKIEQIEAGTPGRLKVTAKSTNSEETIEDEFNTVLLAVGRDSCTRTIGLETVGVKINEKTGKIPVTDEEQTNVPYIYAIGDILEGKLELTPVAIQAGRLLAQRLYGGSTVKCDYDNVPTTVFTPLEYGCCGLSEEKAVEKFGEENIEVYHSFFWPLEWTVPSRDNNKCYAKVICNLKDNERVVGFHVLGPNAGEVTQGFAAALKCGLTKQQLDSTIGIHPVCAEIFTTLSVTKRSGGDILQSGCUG
Procedure, shortened: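 Inhibition is scored from the loss of NADPH fluorescence between first and last reads of an 8-min kinetic run. Selenite (400 uM) was the substrate, added after 15 min compound preincubation at room temperature.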

[21] = target: Chromobox protein homolog 1 (Homo sapiens) (UniProt P83916); assay: qHTS Validation Assay for Inhibitors of HP1-beta Chromodomain Interactions with Methylated Histone Tails (AID 488953); also: potency is read from the fitted curve at half-maximal effect; nearly all actives have a fitted effect of over 50% in size
Sequence of UniProt P83916 (P83916 whole entry, looked up): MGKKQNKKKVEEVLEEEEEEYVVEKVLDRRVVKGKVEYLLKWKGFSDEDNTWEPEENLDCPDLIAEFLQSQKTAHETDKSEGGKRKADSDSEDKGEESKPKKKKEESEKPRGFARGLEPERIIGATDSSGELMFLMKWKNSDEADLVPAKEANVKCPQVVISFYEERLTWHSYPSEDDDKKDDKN
Procedure, shortened: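 AlphaScreen proximity signal from streptavidin donor and nickel chelate acceptor beads (final 10 ug/mL) after 30 min dark incubation. Compounds had 30 min at room temperature with preformed complex of 50 nM HP1-beta and 50 nM b-H3(1-18)K9me3 in PBS pH 7.4 with 0.01% Tween-20.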

[22] = target: Peptidyl-prolyl cis-trans isomerase NIMA-interacting 1 (Homo sapiens) (UniProt Q13526); assay: qHTS Validation Assay to Find Inhibitors of Pin1 (AID 504536; active = well fitted inhibition curve with a large enough effect in the polarisation, with a control signal flat, not every such curve was filed as active; inconclusive = small, poorly fitted or top-dose-only effect, or effect the other way; the % refers to the polarisation; also: potency is read from the fitted curve at half-maximal effect)
Sequence of UniProt Q13526 (Q13526 whole entry, looked up): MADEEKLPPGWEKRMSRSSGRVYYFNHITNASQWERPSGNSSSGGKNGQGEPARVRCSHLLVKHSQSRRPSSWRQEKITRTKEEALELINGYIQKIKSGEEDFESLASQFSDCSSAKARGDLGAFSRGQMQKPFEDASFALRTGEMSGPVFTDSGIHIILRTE
Procedure, shortened: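 Fluorescence polarization competition: compounds (titration) displace HiFluor-488-labeled Pin1-1b peptide from Pin1 (0.3 uM final) in pH 7.5 HEPES buffer with DTT, 10 min at room temperature; %Activity normalized to no-enzyme wells, curves fitted.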

[23] = target: Calcium and integrin-binding protein 1 (Homo sapiens) (UniProt Q99828); assay: Validation qHTS for Identification of Calcium Integrin Binding protein 1 (CIB1) Competitor (AID 1508618); also: potency is read from the fitted curve at half-maximal effect
Procedure, shortened: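 Displacement of FITC-alphaIIb peptide (100 nM) from CIB1-GST (1 uM) is monitored by polarization in quantitative HTS format; buffer carries 5 mM CaCl2 and 125 mM NaCl at pH 7.4, incubations are at room temperature.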

[24] = target: Glutathione peroxidase 1 (Homo sapiens) (UniProt P07203); assay: Primary qHTS Assay for Inhibitors of Recombinant Selenoprotein Glutathione Peroxidase 1 (GPX1) (AID 1845191); also: potency is read from the fitted curve at half-maximal effect; nearly all actives have a fitted effect of over 65% in size
Sequence of UniProt P07203 (P07203 whole entry, looked up): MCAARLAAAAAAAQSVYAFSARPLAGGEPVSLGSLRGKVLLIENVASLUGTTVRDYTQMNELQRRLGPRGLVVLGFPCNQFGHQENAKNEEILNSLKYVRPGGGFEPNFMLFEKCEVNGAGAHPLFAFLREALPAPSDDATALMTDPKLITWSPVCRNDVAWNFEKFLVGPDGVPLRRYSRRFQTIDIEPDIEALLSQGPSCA
Procedure, shortened: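 GR-coupled readout: NADPH consumption tracked by fluorescence, ex 340/em 450 nm, at t=0 and after 15 min at RT. Final mix 10 nM GPX1, 1 mM GSH, 0.5 mM CHP, 0.5 mM NADPH, 100 nM GR, 0.01% BSA, following 30 min enzyme–compound preincubation.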

[25] = target: Phospholipid hydroperoxide glutathione peroxidase GPX4 (Homo sapiens) (UniProt P36969); assay: Primary qHTS Assay for Inhibitors of Recombinant Selenoprotein Glutathione Peroxidase 4 (GPX4) (AID 1845192); also: potency is read from the fitted curve at half-maximal effect; nearly all actives have a fitted effect of over 65% in size
Sequence of UniProt P36969 (P36969 whole entry, looked up): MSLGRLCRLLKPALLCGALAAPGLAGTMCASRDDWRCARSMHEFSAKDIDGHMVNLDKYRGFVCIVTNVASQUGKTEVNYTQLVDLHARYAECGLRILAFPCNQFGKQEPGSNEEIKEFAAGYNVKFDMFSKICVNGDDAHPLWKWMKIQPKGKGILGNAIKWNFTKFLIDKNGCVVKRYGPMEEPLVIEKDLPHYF
Procedure, shortened: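 Steps: GPX4 plus compound, 30 min RT; add GR/GSH/NADPH master mix; start with cumene hydroperoxide; read 340/450 nm fluorescence at 0 and 15 min. Finals were 200 nM GPX4, 1 mM GSH, 0.5 mM CHP, 0.5 mM NADPH, 100 nM GR.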
Tags tell the direction and shape of the fitted curve or compound fluorescence and quenching.

C[C@]12C[C@H](O)C3[C@@H](CCC4=CC(=O)CC[C@@]43C)[C@@H]1CC[C@@H]2C(=O)CO (some centres undefined)
inconclusive: Potency [1] 25.1 µM [activator, partial curve, poor fit] | activity change, negative = inhibition [2] 0.539% | Potency [3] 10 µM [inhibitor, partial curve] | Potency [4] 8.91 µM [inhibitor, partial curve] | Potency [5] 12.6 µM [inhibitor, partial curve] | Potency [6] 12.6 µM [inhibitor, partial curve, poor fit] | Potency [7] 89.1 µM [inhibitor, partial curve, poor fit] | Potency [8] 18.5 µM [inhibitor, single point]

C/C=C1\C(=O)CC2C3CCC4=CC(=O)CC[C@]4(C)C3CC[C@]12C (some centres undefined)
inconclusive: Potency [5] 10 µM [inhibitor, single point] | Potency [9] 10 µM [inhibitor, partial curve] | Potency [10] 39.8 µM [inhibitor, partial curve] | Potency [7] 89.1 µM [inhibitor, partial curve, poor fit] | Potency [11] 31.6 µM [inhibitor, single point]
inactive: ratio change, both ways [1] 9.79% | Potency [8]
active: Potency [3] 11.2 µM | Potency [6] 10 µM

CC(O)c1ccc(-c2ccc3ncnc(N4CCOCC4)c3c2)o1 (centres undefined)
inactive: Potency [12]
inconclusive: Potency [13] 14.1 µM [inhibitor, full curve, poor fit]

CC(=O)O[C@]1(C(C)=O)CC[C@H]2C3C=C(Cl)C4=CC(=O)[C@@H]5C[C@H]5[C@]4(C)C3CC[C@@]21C (some centres undefined)
active: Potency [4] 10 µM
inconclusive: ratio change, both ways [1] 33.1% [at 46.1 µM] | Potency [14] 0.0447 µM [inhibitor, full curve, poor fit] | Potency [9] 11.2 µM [inhibitor, single point] | Potency [10] 25.1 µM [inhibitor, partial curve] | Potency [7] 56.2 µM [inhibitor, partial curve, poor fit] | Potency [15] 25.1 µM [activator, single point]

NC(=O)c1cc[n+](CC2=C(C(=O)O)N3C(=O)[C@@H](NC(=O)[C@@H](c4ccccc4)S(=O)(=O)[O-])[C@H]3SC2)cc1
inactive: Potency [7] | Potency [18]
active: Potency [22] 9.53 µM | Potency [24] 4.53 µM and 28.2 µM
inconclusive: ratio change, both ways [1] -12.3% | activity change, negative = inhibition [2] -0.707% | Potency [16] 1.78 µM [inhibitor, full curve] | Potency [17] 0.199 µM [inhibitor, full curve, poor fit] | Potency [19] 5.36 µM [falling, partial curve] | Potency [20] 9.47 µM [inhibitor, partial curve] | Potency [21] 50.1 µM [inhibitor, partial curve] | Potency [23] 50.1 µM [inhibitor, partial curve] | Potency [25] 17.8 µM [inhibitor, partial curve]
